Laboratory results reported in PubChem BioAssay AID1508642 (National Center for Advancing Translational Sciences (NCATS), 2021).
Hit rate of the full screen: of about 43,000 compounds, about 200 (0.47%) were called active. About 12% were inconclusive and are not listed. Calls follow the shape of the dose curve; as a rule, active = well fitted cell-killing curve with a large enough effect; inconclusive = small, poorly fitted or top-dose-only effect, or effect the other way; inactive = flat fitted curve, though single readings scatter. The list shows a part of the results.

Experiment: Cell viability qHTS assay in S16 Pmp22-F2sN cells; also: nearly all actives have a fitted effect of over 65% in size
Conditions: S16 Pmp22-F2sN Schwann cells viability, CellTiter-Glo, 24 h; series mostly up to 57.5 µM; activity change, negative = cytotoxicity: at the top concentration
Summary of the method: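 S16 Pmp22-F2sN Schwann cells (500-1,000/well) in phenol-red-free DMEM with 10% FBS received 23 nL compound by pin tool for 24 h at 37 °C. Viability was then read as CellTiter-Glo luminescence after 15 min at room temperature.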
% is scaled to controls: 0 for no effect and ±100 for the full control effect.

| SMILES | activity change, negative = cytotoxicity |
| --- | --- |
| COc1ccc(NC(=O)C(NC(=O)/C=C\c2ccc3c(c2)OCO3)c2ccccc2)cc1 (stereo unspecified) | inactive: -27.5% |
| CSc1ncc(C(=O)N2CCN(c3cccc(C(F)(F)F)c3)CC2)c(C)n1 | inactive: -4.86% |
| COc1ccccc1OCC(=O)Nc1c(C(=O)c2ccc(F)cc2)oc2ccccc12 | inactive: 16.5% |
| CCCN(CCC)CCCNC(=O)c1cc2c(=O)[nH]c3ccccc3c2n1C | inactive: 0.725% |
| COc1cccc(-n2c(=O)c3sc4ccccc4c3n(CC(=O)Nc3ccccc3C)c2=O)c1 | inactive: 22.6% |
| COc1ccc(C2CC(=O)c3cc(-c4nc(-c5cccc([N+](=O)[O-])c5)cs4)c(=O)n(-c4ccc(OC)cc4)c3C2)cc1 (stereo unspecified) | inactive: -0.543% |
| COc1ccc(C2N3CC4(C)CN2CC(c2ccccc2)(C3)C4=O)cc1OC (stereo unspecified) | inactive: 5.68% |
| Cc1ccc(NC(=O)C2CCN(S(=O)(=O)c3cc(-c4noc(C)n4)ccc3C)CC2)c(C)c1 | inactive: -20.4% |
| Cc1ccc(Cl)cc1NC(=O)CN1C(=O)C(C)(C)c2cc(S(=O)(=O)N3CCCCC3)ccc21 | inactive: -3.21% |
| COc1ccc(S(=O)(=O)c2cnc(SCC(=O)Nc3cc(F)ccc3C)[nH]c2=O)cc1Cl | inactive: 8.12% |
| CCC1CCCCN1C(=O)c1sc(-n2nc(C)c(Cc3ccccc3)c2C)nc1C (stereo unspecified) | inactive: 2.94% |
| CCOC(=O)c1ccc(OC(=O)c2cn(-c3cccc(OC)c3)c(=O)c3ccccc23)cc1 | inactive: 1.43% |
| CCc1ccc2c(c1)NC(c1ccc(OC)cc1)=NC(c1ccncc1)=N2 | inactive: 10% |
| CCOc1ccccc1NC(=O)C(C)N(c1ccccc1)S(C)(=O)=O (stereo unspecified) | inactive: -5.95% |
| COc1cc(/C=C/c2nc(C#N)c(N3CCC(C)CC3)o2)cc(OC)c1OC | inactive: -18.8% |
| COc1cccc(OC(=O)CSc2nnc(-c3ccc4c(c3)OCO4)o2)c1 | inactive: 3.48% |
| CC(C)CCN(C(=O)Nc1ccc(Cl)c(Cl)c1)C(C)c1cccs1 (stereo unspecified) | inactive: -11.2% |
| CCOC(=O)c1c(S(=O)(=O)NCC(=O)NCc2ccccc2)c(C)n(C)c1C | inactive: 10.5% |
| Cc1cccc(-c2nc3c4ccccc4nc(NCc4ccc(F)cc4)n3n2)c1 | inactive: 9.57% |
| COc1ccc(NCc2cc3ccc(OC)cc3n(CC(=O)Nc3cc(Cl)ccc3C)c2=O)cc1 | inactive: 11.4% |
| CCOc1ccc(NS(=O)(=O)c2ccc3[nH]cc(C(=O)NCC4CCCO4)c(=O)c3c2)cc1 (stereo unspecified) | inactive: 15.5% |
| Nc1c(-c2nc(-c3ccc(F)cc3)cs2)c2ccccn2c1C(=O)c1ccc2c(c1)OCO2 | inactive: -1.77% |
| CCOc1ccc(N2CC(C(=O)NCc3nnnn3-c3ccc(C)c(C)c3)CC2=O)cc1 (stereo unspecified) | inactive: 14% |
| CCc1cccc(NC(=O)CN(C)S(=O)(=O)c2cccc3cccnc23)c1 | inactive: 6.3% |

| SMILES | activity change, negative = cytotoxicity |
| --- | --- |
| CC1CCc2c(sc(NC(=O)c3cc4nc(-c5ccc(Cl)cc5)cc(C(F)(F)F)n4n3)c2C#N)C1 (stereo unspecified) | inactive: 16.1% |
| CCSc1ncc(Cl)c(C(=O)Nc2sc3c(c2C(=O)NC)CCCC3)n1 | inactive: 2.13% |
| CCc1ccc(NC(=O)c2cnc3sc(N4CCCC4)nn3c2=O)cc1 | inactive: 10.7% |
| Cc1cc2nc(-c3ccc(OCc4ccccc4)cc3)cc(C(F)(F)F)n2n1 | inactive: 9.09% |
| O=C(Cn1c(=O)c2cccn2c2cccnc21)NCc1ccccc1F | inactive: 4.55% |
| Cc1cc(-n2c(C)nc3ccccc3c2=O)ccc1NC(=O)c1ccc([N+](=O)[O-])cc1 | inactive: -3.27% |
| O=C(Nc1ccc(S(=O)(=O)N2CCCCCC2)cc1)c1cc(=O)c2ccccc2o1 | inactive: -18.2% |
| CCn1c2ccccc2c2cc(CN3CCN(Cc4ccccc4C)CC3)ccc21 | inactive: 25.2% |
| COc1ccccc1C(=O)Nc1ccc(OCc2cc(=O)n3cc(C)sc3n2)cc1 | inactive: 3.4% |
| CCc1ccc(NC(=O)Cn2c(-c3cncs3)nc3ccccc32)cc1 | inactive: 0.447% |
| c1ccc(OCCn2c(COc3ccccc3)nc3ccccc32)cc1 | inactive: 3.56% |
| O=C1c2oc3ccccc3c(=O)c2C(c2cccc(Cl)c2)N1c1ccccn1 (stereo unspecified) | inactive: -1.78% |
| Cc1ccc2[nH]c(=O)c3cc(C(=O)NCCc4ccc(Cl)cc4)sc3c2c1 | inactive: -6.53% |
| O=C(c1ccc2c(c1)N(Cc1cccc(Cl)c1)C(=O)c1ccccc1S2)N1CCOCC1 | inactive: -3.42% |
| COc1ccc(CCN2C(=O)CN(C3CCC(C)CC3)C(=O)C2c2ccc(OC(C)C)c(OC)c2)cc1OC (stereo unspecified) | inactive: -27% |
| Cc1ccccc1C(=O)c1cccn1CC(=O)NCc1cccc(Cl)c1 | inactive: 0.555% |
| CCc1ccc(S(=O)(=O)c2nnn3c2nc(NCCNC(C)=O)c2cc(Cl)ccc23)cc1 | inactive: -0.66% |
| CC(C)(C)NC(=O)c1oc2ccccc2c1NC(=O)c1ccc(F)cc1 | inactive: 6.92% |
| CCc1nn(CCCC(=O)NC(C)c2ccccc2)c(=O)c2cc3occc3n12 (stereo unspecified) | inactive: 7.5% |
| Cc1ccc(Cn2cc(CCC(=O)NCc3ccc(OC(C)C)cc3)c3ccccc32)cc1 | inactive: 4.15% |
| COc1cc(-c2cc(OC)c3c(C)oc(C)c3c(=O)c2)ccc1OC(=O)c1cccc(Cl)c1 | inactive: -1.96% |
| COc1ccc(NC(=O)CCCN2C(=O)COc3ccc(C)cc32)cc1OC | inactive: -1.6% |
| Cc1ccc(S(=O)(=O)c2nnn3c2nc(NCc2ccccc2Cl)c2sccc23)cc1 | inactive: 5.45% |
| CCOC(=O)c1ccc(NC(=O)c2nn(C)c3c2COc2ccccc2-3)cc1 | inactive: -5.44% |

| SMILES | activity change, negative = cytotoxicity |
| --- | --- |
| CC(C)c1ccc(OCc2cc(=O)n3c(-c4ccccc4)csc3n2)cc1 | inactive: 13.5% |
| O=C(Cn1c(=O)n(-c2ccc(Cl)cc2)c(=O)c2c3c(sc21)CCC3)c1ccccc1 | inactive: 23.7% |
| CCOC(=O)c1c(NC(=O)CSc2cn(CCNC(=O)c3ccccc3F)c3ccccc23)sc2c1CCCC2 | inactive: 0.24% |
| CC(C)(C)OC(=O)N1CCC(c2c(C(=O)N3CCN(C(=O)c4ccco4)CC3)cnn2-c2ccccc2Cl)CC1 | inactive: 7.89% |
| COCCCNC(=O)c1ccc2c(c1)NC(=O)C(C(C)C)N2 (stereo unspecified) | inactive: 8.42% |
| COc1ccccc1NC(=O)c1c(NC(=O)c2ccccc2Cl)sc2c1CCC2 | inactive: 8.84% |
| CCOc1ccccc1CNC(=O)CN1C(=O)CCc2cc(S(=O)(=O)N3CCCCC3)ccc21 | inactive: 18.9% |
| Cc1cccc(OCC(=O)Nc2ccc3nc(Nc4cccc(Cl)c4)cc(C)c3c2)c1 | inactive: 18.8% |
| COc1ccc(CN2C(=O)C(NC(=O)c3ccccc3OC)(C(F)(F)F)N=C2c2ccccc2)cc1 (stereo unspecified) | inactive: 10.3% |
| CCc1ccc(NC(=O)CCn2cnc3ccccc3c2=O)cc1 | inactive: -2.43% |
| CCc1ccc(S(=O)(=O)c2nnn(-c3cccc(C)c3)c2N)cc1 | inactive: 21.4% |
| CCOc1ccc(CNC(=O)CCCn2c(=O)c3cccn3c3ccc(F)cc32)cc1 | inactive: 21.9% |
| Cn1c(=O)c(=O)n(C)c2cc(NC(=O)c3ccccc3Br)ccc21 | inactive: -2.11% |
| Cc1ccc(-n2nc(C)c3c(C(=O)Nc4ccc(Br)c(C)c4)cc(C)nc32)cc1 | inactive: 18.6% |
| COc1ccccc1Nc1ncnc2c1nc1n2CCCC1 | inactive: 11.3% |
| Cc1ccc(-c2nc3cccnc3s2)cc1NC(=O)Cc1ccccc1 | inactive: -15.3% |
| COc1ccc(NC(=O)Cn2ccn(-c3ccccc3)c(=O)c2=O)cc1 | inactive: 1.15% |
| COc1ccc(CCC(=O)NCc2ccc3c(c2)CCN3C(=O)c2ccc(C)cc2)cc1 | inactive: 16% |
| COc1cccc(-c2nc(SCC(=O)N3CCc4ccccc43)c3c(=O)n(C)c(=O)n(C)c3n2)c1 | inactive: -5.01% |
| CCOCCCn1c(=N)c(C(=O)NCC2CCCO2)cc2c(=O)n3cc(C)ccc3nc21 (stereo unspecified) | inactive: 1.72% |
| COCCNC(=O)CSc1nc(-c2ccc(C)cc2)nc2c1c(=O)n(C)c(=O)n2C | inactive: 17.9% |
| COC(=O)C1=C(C)NC(=O)C1(NC(=O)c1ccccc1C)C(F)(F)F (stereo unspecified) | inactive: 0.93% |
| Cc1cc(C)cc(NC(=O)C2(c3cccs3)CCOCC2)c1 | inactive: 19% |
| COc1ccccc1CNC(=O)Cn1nc(C)c2nn(-c3ccc(Cl)cc3)c(C)c2c1=O | inactive: 2.42% |

| SMILES | activity change, negative = cytotoxicity |
| --- | --- |
| CC(C)c1ccc(Nc2ncnc3c2c(-c2ccccc2)cn3-c2ccccc2)cc1 | inactive: 0.165% |
| CCCCOc1ccc(C2=NC(c3ccccc3)=Nc3ccc(OC)cc3N2)cc1 | inactive: -18.4% |
| Cn1c(=O)c2c(-c3ccccc3Br)n(CCc3ccccc3)cc2n(C)c1=O | inactive: -5.02% |
| Clc1ccccc1Cc1cn2cc(-c3ccccc3)nc2s1 | inactive: 19.7% |
| CCc1ccc(NC(=O)CSc2nnc(-c3cc4occc4n3C)n2-c2ccccc2C)cc1 | inactive: -17.9% |
| C=CCc1c(C)nc2nc(SCC(=O)Nc3ccc(OCC)cc3)nn2c1C | inactive: 9.09% |
| COc1cccc(CNC(=O)Cn2ccc3cc(S(=O)(=O)N4CCC(C)CC4)ccc32)c1 | inactive: -10.9% |
| CC(C)COc1ccccc1C1CC(=O)Nc2cc3c(cc21)OCO3 (stereo unspecified) | inactive: -14.4% |
| COc1ccccc1NC(=O)CSc1nnc2c3ccccc3n(C)c2n1 | inactive: 0.819% |
| Clc1cccc(-n2ncc3c(N4CCN(Cc5ccccc5)CC4)ncnc32)c1 | inactive: -2.32% |
| Cc1cc(C)cc(OCC(=O)N(Cc2ccc(C)o2)C2CCS(=O)(=O)C2)c1 (stereo unspecified) | inactive: -10.2% |
| CCC(CC)C(=O)Nc1ccc2nc(SCC(=O)N3c4ccccc4CC3C)sc2c1 (stereo unspecified) | inactive: -6.92% |
| CC(C)Oc1ccc(CNC(=O)c2ccc3nc(Cc4ccccc4)oc3c2)cc1 | inactive: -4.17% |
| CCOC(=O)c1c(C)sc(-c2c(-c3ccc(OC)c(F)c3)[nH]c3c2c(=O)[nH]c(=O)n3C)c1O | inactive: 32.6% |
| COc1ccc(Cl)cc1NC(=O)c1c(NCc2ccc(C)o2)sc2c1CCCC2 | inactive: -0.654% |
| COCCNC(=O)c1cc2c(Cl)nc3ccc(C)cc3c2s1 | inactive: 3.5% |
| Cc1ccc(CN(Cc2ccco2)C(=O)c2oc3c(C)c(C)ccc3c2C)cc1 | inactive: -0.699% |
| COc1cccc(N(CC(=O)N2CCC(C)CC2)S(=O)(=O)c2ccc(C)cc2)c1 | inactive: -2.49% |
| COc1cc(OC)c(Nc2ncnc3onc(-c4cccc(Cl)c4)c23)cc1Cl | inactive: 11.2% |
| CCC(C)NC(=O)CSc1nc2cc3c(cc2c(=O)n1CCCC(=O)NCc1ccc2c(c1)OCO2)OCO3 (stereo unspecified) | inactive: 13.5% |
| CC(C)c1nn2c(=O)cc(COC(=O)CNC(=O)c3ccccc3)nc2s1 | inactive: 11.2% |
| COc1ccc(NC(=O)Cc2csc(COc3cccc(C)c3)n2)c(OC)c1 | inactive: -3.07% |
| CCc1ccc(NC(=O)C(=O)NCC(c2cccnc2)N2CCOCC2)cc1 (stereo unspecified) | inactive: 6.6% |
| CCc1ccc(NC(=O)c2cc3c(=O)n(Cc4cccnc4)ccc3nc2C)cc1 | inactive: -2.62% |
